From PMC4336329 (PLoS ONE, 2015)
The whole screen tested about 310,000 compounds, of which about 2,200 (0.71%) showed an effect of 50% or more. Effects have a minus sign here. The list shows a part of the results.

The compounds below were run against human ether-à-go-go-related gene (hERG) potassium channel (human, UniProt Q12809) (assay: primary screen, population patch clamp on CHO cells stably expressing hERG).
Sequence of human ether-à-go-go-related gene (hERG) potassium channel (Q12809 whole entry, looked up): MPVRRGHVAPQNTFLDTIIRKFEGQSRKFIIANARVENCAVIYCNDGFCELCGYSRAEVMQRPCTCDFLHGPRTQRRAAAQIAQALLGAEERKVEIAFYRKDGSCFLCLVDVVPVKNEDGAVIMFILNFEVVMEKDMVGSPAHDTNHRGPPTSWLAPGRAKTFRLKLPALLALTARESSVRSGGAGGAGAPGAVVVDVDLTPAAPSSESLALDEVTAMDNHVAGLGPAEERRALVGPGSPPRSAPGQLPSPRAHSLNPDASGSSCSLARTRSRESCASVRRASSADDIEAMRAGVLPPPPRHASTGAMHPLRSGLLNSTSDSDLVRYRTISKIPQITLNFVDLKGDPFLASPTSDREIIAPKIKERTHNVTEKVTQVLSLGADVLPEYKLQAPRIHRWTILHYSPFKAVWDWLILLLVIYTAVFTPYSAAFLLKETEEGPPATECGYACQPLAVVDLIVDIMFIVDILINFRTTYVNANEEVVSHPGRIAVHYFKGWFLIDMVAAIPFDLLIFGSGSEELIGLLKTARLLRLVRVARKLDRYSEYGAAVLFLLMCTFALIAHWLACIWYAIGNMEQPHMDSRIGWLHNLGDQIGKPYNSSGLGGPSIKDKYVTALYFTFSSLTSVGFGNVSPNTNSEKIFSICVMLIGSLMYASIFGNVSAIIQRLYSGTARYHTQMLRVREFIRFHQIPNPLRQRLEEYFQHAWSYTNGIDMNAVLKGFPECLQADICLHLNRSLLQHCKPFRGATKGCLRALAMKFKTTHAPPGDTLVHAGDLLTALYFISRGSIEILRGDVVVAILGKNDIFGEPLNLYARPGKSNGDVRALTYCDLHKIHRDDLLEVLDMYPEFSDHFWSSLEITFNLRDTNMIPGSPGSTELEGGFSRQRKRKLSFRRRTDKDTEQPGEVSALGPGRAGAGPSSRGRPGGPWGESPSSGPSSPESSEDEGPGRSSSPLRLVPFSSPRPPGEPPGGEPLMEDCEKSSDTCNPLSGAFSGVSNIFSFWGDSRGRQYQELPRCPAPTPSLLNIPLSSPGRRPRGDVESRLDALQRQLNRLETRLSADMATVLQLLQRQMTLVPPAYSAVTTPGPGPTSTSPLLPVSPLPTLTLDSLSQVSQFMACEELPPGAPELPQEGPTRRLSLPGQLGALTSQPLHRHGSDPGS

Row | Structure (SMILES) | hERG current change (%, negative = inhibition) at 1uM
1 | CC1(C)N(O)C2CCCCC2N1O (centres unmarked) | 1.72%
2 | N/C(=N\OC(=O)/C=C/c1ccccc1)c1ccncc1 | -24.3%
3 | Cl.Clc1ccc(CN2CCNCC2)cc1 | 12.3%
4 | O=C(NNS(=O)(=O)c1ccccc1)C(O)(c1ccccc1)c1ccccc1 | 17.3%
5 | C/C(=N/NC(=S)Nc1cccc(C)c1)c1cccc([N+](=O)[O-])c1 | 10.4%
6 | O=S(=O)(c1ccccc1)c1cnc(-c2ccccc2)nc1N1CCCC1 | 23.9%
7 | c1ccc2c(C3CCO3)cccc2c1 (centres unmarked) | 9.87%
8 | CCN(CC(=O)Nc1c(F)cccc1F)C(=O)CCC(=O)c1ccc(C)cc1 | 10.1%
9 | Cc1cccnc1NC(=O)c1cc2c(=O)oc3ccccc3c2s1 | 18.2%
10 | COCCNC(=O)C(c1ccc(C)o1)N(C(=O)c1snc(C(N)=O)c1N)c1ccc(C)cc1 (centres unmarked) | -0.564%
11 | CCN(CC)S(=O)(=O)c1ccc(N(C)Cc2cccc(OC)c2OC)nc1 | 12.6%
12 | COc1ccc(NC(=O)C2CCN(c3nc(C)cc(C)n3)CC2)cc1 | -12.9%
13 | CC(=O)c1c(C)[nH]c(C(=O)CSc2ncnc3sc(-c4ccccc4)cc23)c1C | 7.89%
14 | NC(=O)c1ccc(N=Cc2c(O)n(Cc3ccco3)c(=O)[nH]c2=O)cc1 | -5.15%
15 | O=C(N/C(=C/c1ccccc1Cl)C(=O)N1CCCCC1)c1ccco1 | 19.8%
16 | COC(=O)/C=C1\N/C(=N\c2nc(C)cc(C)n2)N(c2ccc(C)cc2)C1=O | -9.7%
17 | O=C(c1cc2ccccc2oc1=O)N(Cc1cccc(Br)c1)C1CCS(=O)(=O)C1 (centres unmarked) | 8.86%
18 | CC(=O)Nc1cccc(-c2nnc3c4ccccc4c(C)nn23)c1 | 0.606%
19 | CCCn1c(SCC(=O)N2CCOCC2)nnc1-c1ccncc1 | 5.28%

Row | Structure (SMILES) | hERG current change (%, negative = inhibition) at 1uM
20 | CCOc1ccc(C(=O)NCCCCNC(=O)c2ccc(OCC)cc2)cc1 | 21.1%
21 | O=C(C1=C[C@@H](C2CCCCC2)C[C@@H](OCCCCO)O1)N1CCN(Cc2ccc3c(c2)OCO3)CC1 | -6.55%
22 | CCC(O)(C#CCN1CCCCC1)CC | 6.11%
23 | CCNc1nc(NOC)nc(OCC#N)n1 | 9.54%
24 | CCC(C)Sc1nc2c(c(=O)[nH]1)C(c1cccs1)C1=C(CCCC1=O)N2 (centres unmarked) | -1.94%
25 | Cc1cc(C)nc(Nc2nc(=O)c3ccccc3s2)n1 | 9.49%
26 | CCOc1ccccc1N1CCN(C(=O)[C@@H]2CCCN2C2=NS(=O)(=O)c3ccccc32)CC1 | 2.01%
27 | CC(C)OCCCNS(=O)(=O)c1ccc2c(c1)oc(=O)n2C | 13.5%
28 | COc1ccc(/C=N/NC(=O)c2cc(-c3ccccc3OC)nc3ccccc23)cc1COC(C)=O | 15%
29 | O=C(COc1ncnc2ccccc12)Nc1ccc(S(=O)(=O)N2CCOCC2)cc1 | 13.2%
30 | COc1ccc(C(=O)NCC2CCCN2S(=O)(=O)c2cccs2)cc1OC (centres unmarked) | 8.28%
31 | OC(CNCc1ccco1)Cn1c2ccccc2c2ccccc21 (centres unmarked) | -7.72%
32 | Cc1ccc(OCCNC(=O)/C=C/c2ccccc2)cc1 | 4.51%
33 | CC(=O)c1cccc(CN2CCC(CO)(Cc3ccccc3)CC2)c1 | 7.16%
34 | CC(NC(=O)COC(=O)Cc1ccsc1)c1ccccc1 (centres unmarked) | 1.58%
35 | CCN(CC)S(=O)(=O)c1ccc2c(c1)c(=O)c(C(=O)N1CCc3ccccc3C1)cn2C | -21.2%
36 | O=C(Nc1cc(Br)ccc1O)c1cc(-c2ccco2)on1 | 14.2%
37 | CC(OC(=O)c1cc(=O)[nH]c2ccccc12)C(=O)NC1CCCC1 (centres unmarked) | 2.91%
38 | COc1cccc(NC(=O)CCNS(=O)(=O)c2ccc(Br)s2)c1 | 5.53%

Row | Structure (SMILES) | hERG current change (%, negative = inhibition) at 1uM
39 | COc1ccccc1CNC(=O)C1CCN(C(=O)N(C)C)CC1 | 3.9%
40 | Cc1ccc2nsnc2c1S(=O)(=O)N(CCO)Cc1cc2cc3c(cc2[nH]c1=O)OCCO3 | 11.7%
41 | Cc1cc(NC(=O)COC(=O)c2oc3c(Cl)cccc3c2C)no1 | 5.54%
42 | CCOC(=O)c1cccc(NC(=O)c2c(N)n(C)c(=O)[nH]c2=O)c1 | 13%
43 | CCOc1ccc(C(=O)NCC(=O)OCc2cc([N+](=O)[O-])cc3c2OCOC3)cc1OCC | -20%
44 | COc1ccc(CNC(=O)[C@H](C)NC(=O)C2CC(=O)N(c3ccc(OC)cc3)C2)cc1 (some centres unmarked) | 12.3%
45 | COC(=O)CNC(c1ccccc1)c1cc(C)ccc1NC(=O)CNC(=O)OCc1ccccc1 (centres unmarked) | 5.03%
46 | CCCN(CCC)Cc1cc2ccccc2c2c1COC2 | -14.2%
47 | COc1cc(C(=O)OCC(=O)NC2CC2)cc(OC)c1OC | 5.87%
48 | O=C(NCc1ccccn1)c1cc(-c2ccccc2)nc2ccccc12 | -6.96%
49 | O=C1CCc2cc(S(=O)(=O)N3CCC(C(=O)NC4CCCCCCC4)CC3)ccc2N1 | 10.9%
50 | CC(C)c1cccc(C(C)C)c1NC(=O)CN1C(=O)NC2(CCCCCCC2)C1=O | 8.87%
51 | CCOC(=O)c1nn(-c2ccc(Cl)cc2)c2nc(CC)c(C#N)c(=O)n12 | -2.56%
52 | O=C(NCCc1nc(-c2ccccc2Cl)no1)c1ccccc1 | 8.45%
53 | Cc1ccc(CCNS(=O)(=O)c2cc(Br)cnc2N)cc1 | 11.7%
54 | O=C(Nc1ccc(N2CCOCC2)c(Cl)c1)c1ccc(-n2cnnc2)cc1 | 9.75%
55 | CS(=O)(=O)N(CC(=O)NC1CCCCC1)Cc1ccc(Cl)cc1 | 1.17%
56 | COc1ccccc1NC(=O)/C(=N/OCc1ccc(F)cc1)C(C)=O | 19.4%
